Source: PubChem BioAssay AID588855 (National Center for Advancing Translational Sciences (NCATS), 2011)
Among all 410,000 compounds or so, about 5,000 (1.2%) were called active. The shares of active, inactive and inconclusive entries below differ from those in the screen. Calls follow the shape of the dose curve; as a rule, active = well fitted inhibition curve with a large enough effect; inconclusive = small, poorly fitted or top-dose-only effect; inactive = no such curve, though single readings can be large or run the other way. Potencies of inconclusive entries are doubtful fits and often do not repeat.

Experiment: qHTS for Inhibitors of TGF-b; also: nearly all actives have a fitted effect of over 65% in size
Conditions: HepG2 CAGA-GFP TGF-b/SMAD3 reporter, GFP fluorescence, 18 h, TGF-beta stimulated, 500 pg/mL final; series mostly up to 46.1 µM
How it was run: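 Using HEPG2 CAGA-GFP reporter cells at 1000 cells/well, we pinned test compounds, stimulated with recombinant TGF-beta (500 pg/mL final) and measured total well GFP after 18 h.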
Potency is read from the fitted curve at half-maximal effect; tags tell the direction and shape of the fitted curve.

SMILES	Potency
Cc1cnnc2c1-c1no[n+]([O-])c1CC2	inconclusive: 11.2 µM [inhibitor, single point]
O=S(=O)(N/N=C/c1ccc2c(c1)OCCO2)c1ccccc1	inactive
Cc1cc(C)c2nc(N3CCC(C(=O)N4CCN(C(=O)c5ccco5)CC4)CC3)sc2c1	inconclusive: 15.8 µM [inhibitor, single point]
COc1ccc(CN2CCC2(C)C(=O)NCc2ccc3c(c2)OCO3)c2ccccc12 (stereo not drawn)	inconclusive: 17.8 µM [inhibitor, single point]
CN(C)c1ccc(C(CNC(=O)COc2ccc(Cl)cc2)N2CCCC2)cc1 (stereo not drawn)	inconclusive: 35.5 µM [inhibitor, single point]
COc1ccc2sc(-c3ccccc3OC)c(C#Cc3cncn3C)c2c1	inconclusive: 35.5 µM [inhibitor, single point]
CCN1CCN(c2ccc(NC(=O)c3ccc(OC)c(S(=O)(=O)N4CCCC4)c3)cc2)CC1	inactive
CCC(C)[C@H](N)c1nnc(SCc2cccc(F)c2)o1 (stereo partly drawn)	inactive
CCCCSc1nc(N)c(C#N)c(-c2cccs2)c1C#N	inconclusive: 31.6 µM [inhibitor, single point]
CCOC(=O)c1c(NC(=O)C(C)OC(=O)c2ccc(NC(=O)CC#N)cc2)sc2c1CCCC2 (stereo not drawn)	inconclusive: 35.5 µM [inhibitor, single point]
Cc1ccc(NC(=O)Cc2coc3ccc(C(C)C)cc23)c(C)c1	inconclusive: 35.5 µM [inhibitor, single point]
C[C@H](NC(=O)c1nc[nH]c1C(=O)N[C@@H](CCCCNC(=O)OC(C)(C)C)C(=O)OC(C)(C)C)C(=O)OC(C)(C)C	inconclusive: 31.6 µM [inhibitor, partial curve, poor fit]
Cc1ccc(COc2ccc(-c3cc(C(F)(F)F)n4nc(C)cc4n3)cc2)cc1	inactive
O=S(=O)(Nc1nc2ccccc2nc1Nc1ccccc1Br)c1ccccc1	inactive
Fc1ccc(NC(=S)N2CCN(C/C=C/c3ccccc3)CC2)c(F)c1	inconclusive: 17.8 µM [inhibitor, partial curve, poor fit]
COCCNC(=O)Cn1cnc2c1c(=O)n(C)c(=O)n2C	inconclusive: 1.78 µM [inhibitor, partial curve, poor fit]
CC1(C)CC(Nc2ccc(Nc3ccccc3)cc2)CC(C)(C)N1	inactive
COc1cc(-n2c(N)c(C(=O)NCc3ccco3)c3nc4ccccc4nc32)cc(OC)c1OC	inconclusive: 35.5 µM [inhibitor, single point]
